# From PMC12040169 (PLOS Biology, 2025)
# Some of the results follow.
# System: T1, C. trachomatis L2/434/Bu expressing GFP (CTL2-GFP)
# T1 construct: L2/434/Bu GFP intracellular growth in HeLa cells
# Set-up: species or system HeLa; C. trachomatis total inclusion area by high-content imaging, normalised to DMSO
# Settings: total inclusion area; 28.5 h, 10 µM; inhibitor
# Summary of the method: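 After bulk GFP and resorufin fluorescence reads, cells were fixed, stained with Hoechst and imaged by high-content microscopy. Inclusion area and number (GFP) stood in for chlamydial growth, nuclei count (Hoechst) for host cell viability. MICs were derived as for the bulk readout.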
row,SMILES,% of control remaining
1,CSc1nc2ccc(NS(=O)(=O)c3ccc(Cl)c(C(=O)O)c3)cc2s1 [CBK297541],88.0553
2,CCn1c(SCC(=O)N2c3ccccc3Sc3ccccc32)nnc1C(C)Oc1ccccc1 (stereo not drawn) [CBK266290],149.448
3,COC(=O)c1cccn2cc(CN3CCSC(C)C3)nc12 (stereo not drawn) [CBK304958],104.532
4,Cc1ccc2[nH]c3c(c2c1)CCNCC3 [CBK004811],100.971
5,S=C(NCc1cccs1)NC1CC1 [CBK008520],71.1305
6,COCCN(CCOC)C(=O)Nc1ccc(F)c(NC(C)=O)c1 [CBK307705],116.016
7,COCCn1cc(C(=O)N2CCN3CCCCC3C2)c2ccccc21 (stereo not drawn) [CBK305287],44.4553
8,COc1ccccc1-c1nn2c(Cn3cnc4ccccc43)nnc2s1 [CBK268218],108.359
9,C[C@@H](Cn1c(C(F)(F)F)cc2cccnc21)NC(=O)C1CCC1 [CBK283230],93.1797
10,Cc1occc1-c1nnc(SCC(=O)Nc2cccc3nsnc23)o1 [CBK268979],107.044
11,COc1ccc(-c2nc(-c3ccoc3)cnc2N)cc1OC [CBK063964],128.714
12,Cc1ccc(-c2ncc(OCc3cccs3)nc2N)cc1C [CBK145146],86.0072
13,CCc1cc(Br)ccc1S(=O)(=O)NC1CCOC1=O (stereo not drawn) [CBK044385],77.3628
14,CN1CCCN(CC(CC(=O)NCc2ccccc2)C(=O)O)CC1 (stereo not drawn) [CBK286791],105.691
15,Cn1nnnc1Sc1cc(=O)n(C)c(=O)n1C [CBK011072],99.289
16,Cc1nn(CC(=O)NCc2ccc(C(=O)O)cc2)c(C)c1[N+](=O)[O-] [CBK268967],95.1883
17,CC(C)NC(=O)Nc1ccc(C(=O)N(CCC#N)Cc2ccco2)cc1 [CBK305999],63.1301
18,COc1ccc(Cl)cc1Nc1ncnc(N)n1 [CBK288195],119.055
19,Cn1cc(CC(=O)Nc2nc3c(cc2C#N)CCCC3)cn1 [CBK306436],80.2712
20,CC(=O)N1CCC(C(=O)NC(=O)NCCc2ccccc2)CC1 [CBK034851],105.919
21,CCNc1nccnc1-c1cccc(O)c1 [CBK088593],132.334

row,SMILES,% of control remaining
1,CCOC(=O)N1CCN(c2cc3[nH]c(=S)[nH]c3cc2F)CC1 [CBK288444],87.5228
2,Cc1ccc(SCCNC(=O)COc2ccc(Cl)cc2Cl)cc1 [CBK263976],113.278
3,Cc1cc(C(=O)CSc2ccc(Cl)nn2)c(C)n1C1CC1 [CBK305512],60.1276
4,O=c1c2ccccc2n2c(=O)[nH]nc2n1-c1ccccc1 [CBK288352],63.5174
5,O=C(O)/C=C/c1cccc(NS(=O)(=O)c2ccc(C(=O)O)cc2)c1 [CBK262262],102.271
6,c1ccc(CN2CCN(Cc3c[nH]c(-c4ccccc4)n3)CC2)cc1 [CBK074775],86.8398
7,COc1cccc(NC(=O)Cn2cc(OC)c(=O)cc2CN2CCOCC2)c1 [CBK294430],96.589
8,CSc1ccc(-n2ncc(-c3ccc(F)cc3F)n2)cc1 [CBK112728],98.8141
9,COc1cccc2c1cc(C(=O)NCc1cc(C3CC3)[nH]n1)n2C [CBK283282],115.176
10,CCOc1cccc2cc(C(=O)N3CCN(Cc4ccccc4)CC3)c(=O)oc12 [CBK270259C],95.1742
11,COc1cc(CN2CCN(c3ccccn3)CC2)cc(Br)c1O [CBK025770],76.6084
12,Cc1ccc(S(=O)(=O)Nc2cccc3ccccc23)c([N+](=O)[O-])c1 [CBK267381],107.755
13,COc1ccccc1C1C(C(=O)c2sc(C)nc2C)=C(O)C(=O)N1CCCN1CCOCC1 (stereo not drawn) [CBK266592],90.6947
14,CCOC(=O)CN1CCN(c2nccnc2OCCN2CCOCC2)CC1 [CBK082897],18.3475
15,COc1ccnc(N2CCN(C(=O)c3ccc(C)n3C)CC2)n1 [CBK305803],52.7352
16,COCc1cn(C[C@H]2CC3CCN2C[C@@H]3C(=O)NC(C)C)nn1 (stereo partly drawn) [CBK288733],100.218
17,CC(=O)c1ccc(-c2ccc(C(=O)N3CCN(C)CC3)c(N3CCOCC3)n2)s1 [CBK106181],105.211
18,c1ccc2c(c1)OCC(c1nn3c(-c4ccncc4)nnc3s1)O2 (stereo not drawn) [CBK288560],62.2117
19,O=C(c1nccc2ccccc12)N1CCc2ccccc21 [CBK200405],34.8159
20,c1ncn(C2CCCCC2)c1C1CCCCC1 [CBK016758],73.0027
21,CC(C)(C)NC(=O)C1C2CCC3(CC(=O)c4ccccc4O3)C21 (stereo not drawn) [CBK284821],114.875

row,SMILES,% of control remaining
1,COc1ccc2[nH]cc(CCNC(=O)CCC(=O)O)c2c1 [CBK116605],110.698
2,O=C(c1ccco1)N1CCN(c2ccc(/C=C/c3ccccc3)cn2)CC1 [CBK037701],53.5857
3,Cc1cc(Br)ccc1C(=O)Nc1ccc2cc[nH]c2c1 [CBK160046],106.036
4,CC(=O)Nc1ccc(S(=O)(=O)Nc2ccc(C(=O)N3CCN(C)CC3)cc2)cc1 [CBK050406],104.804
5,COc1cc(C2C(C(=O)c3cccs3)=C(O)C(=O)N2Cc2cccnc2)cc(OC)c1OC (stereo not drawn) [CBK264874],108.656
6,COC(=O)Nc1ccc(S(=O)(=O)Oc2ccc(C)cc2-n2nc3ccccc3n2)cc1 [CBK262183],83.8682
7,COc1ccc2c(c1)nc1n2CCC1O (stereo not drawn) [CBK115449],90.9655
8,Cc1cc(C)n(CC(=O)N2CCNC(=O)C2c2ccccc2Cl)n1 (stereo not drawn) [CBK306421],90.8566
9,O=C(N/N=C\c1ccc(-c2ccc(Cl)c(Cl)c2)o1)C1COc2cc3ccccc3cc2O1 (stereo not drawn) [CBK262834],90.7944
10,O=C(Nc1ccc2c(c1)OCO2)C1CCN(S(=O)(=O)c2ccc(Oc3ccccc3)cc2)CC1 [CBK269648],71.9638
11,Cc1ccc2nc(-c3ccccc3)c(CC(=O)O)c(C(=O)O)c2c1 [CBK265128],101.913
12,Cc1n[nH]cc1CN(C)c1cc([C@H]2C[C@@H](N)C2)nc(C2CC2)n1 [CBK307544],32.2914
13,Nc1cccc(-c2cn([C@H]3C[C@@H](O)[C@@H](CO)O3)c(=O)[nH]c2=O)c1 [CBK201262],110.61
14,c1coc(-c2ccc3c(c2)COC2(CCN(CCc4ccc5c(c4)OCO5)CC2)O3)c1 [CBK061057],99.1503
15,CCOC(=O)N1CCC(NS(=O)(=O)c2cccc3cccnc23)CC1 [CBK045453],99.9941
16,Nc1cc(=O)[nH]c(=O)n1CCc1c[nH]c2ccccc12 [CBK288190],90.1143
17,O=S(=O)(c1ccccc1)c1ccc(N2CCNCC2)cc1 [CBK018452],119.467
18,N#Cc1cccc(CSc2nnc(Nc3ccccc3)n2-c2ccccc2)c1 [CBK266040],94.8925
19,CS(=O)(=O)NC1CCN(CCc2ccc(F)c(F)c2)C1 (stereo not drawn) [CBK305078],76.7332
20,COc1ccc(-c2cncc(N(C)CCN(C)C)n2)cc1 [CBK037832],86.9578
21,CCCn1c(C)cc2cc(NC(=O)C(C)n3ccnc3)ccc21 (stereo not drawn) [CBK281547],100.727

row,SMILES,% of control remaining
1,Cc1c(Cl)cccc1S(=O)(=O)Nc1nc(-c2cccc([N+](=O)[O-])c2)cs1 [CBK000994],76.8753
2,COc1ccc(CCNC(=O)N(CCC#N)C2CCCCC2)cc1 [CBK156375],77.8922
3,COc1cc(NC(=O)CSc2ncnc3sc4c(c23)CCCC4)cc(OC)c1 [CBK267547],83.1664
4,COc1ccccc1-c1nccnc1NCc1cccs1 [CBK088682],78.3203
5,CCc1ncsc1C(=O)NC1CCCN(c2ccn(C)n2)C1=O (stereo not drawn) [CBK306498],82.2165
6,COC(=O)CCc1ccc(S(=O)(=O)N2CCCN(Cc3cc(F)cc(F)c3)CC2)cc1 [CBK062990],114.852
7,CN(C)CCn1c2c(c3ccccc31)CCCn1cnnc1-2 [CBK267712C],93.9788
8,CCc1cn(C[C@H](NC(=O)c2ccco2)C(=O)O)c(=O)[nH]c1=O [CBK289670],106.21
9,CC(C)NC(=O)CN1CCC(Oc2nccnc2OCc2ccc(Cl)c(Cl)c2)CC1 [CBK153791],83.6856
10,C/C(=C\c1ccccc1)CN1CCC(C(=O)N2CCN(Cc3ccc4c(c3)OCO4)CC2)CC1 [CBK264327],100.112
11,Cc1cc2c(cc1Cl)C(=O)CC1(CCNCC1)O2 [CBK282715],76.237
12,COc1cc(OC)nc(CN2C(=O)C3(CC(=O)N(CCCN4C(=O)c5ccccc5C4=O)C3=O)c3cc(C)ccc32)n1 (stereo not drawn) [CBK075992],94.5167
13,COc1cc(OC)nc(C(NC(=O)C2CCN(CCc3c[nH]c4ccccc34)CC2)c2ccccc2C)n1 (stereo not drawn) [CBK148101],69.0413
14,Cn1c(=O)c(-c2ccccc2)nc2ccccc21 [CBK016192],94.4605
15,Cc1cc(N2CCCC2)c(F)cc1CN1CCC(O)C(C)C1 (stereo not drawn) [CBK282963],104.326
16,CN(C)CCCNC(=O)C1CCCCN1S(=O)(=O)c1ccc(C(C)(C)C)cc1 (stereo not drawn) [CBK200070],89.8642
17,CS(=O)(=O)N(CC(=O)Nc1ccc2c(c1)OCO2)c1ccc(Oc2ccccc2)cc1 [CBK263989],112.036
18,CC1CCCN(C(=O)c2cc(-c3ccccn3)n[nH]2)C1C (stereo not drawn) [CBK283146],96.8885
